Among the data in PubChem BioAssay AID1625 (Sanford-Burnham Center for Chemical Genomics, 2009) are cell count values, retold here.

The list shows a part of the results. Shown are side measurements of this screen, not its main read-out; they come without a call. Compounds called inactive in the main read-out are mostly missing here.

The experiment in a line: up-regulation of insulin promoter-GFP reporter – imaging, high-content screening, mouse beta cells (AID 1625).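 Also: total cells summed across four imaged fields per well.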 As to conditions: MIN6 insulin promoter-GFP reporter, measured here: cytotoxicity, nuclei count, at 5 µM.
Turning to `Cc1c(C(=O)NCC2COc3ccccc3O2)oc2ccc(S(=O)(=O)N3CC(C)CC(C)C3)cc12` (centres undefined), the cell count stood at 404 cells.
`CCc1ccc2c(c1)C1(NN=C(c3ccc(C)cc3)S1)C(=O)N2` (centres undefined): the cell count stood at 447 cells.
Consider `Clc1ccc(OCCN2CCN(c3ncnc4sccc34)CC2)cc1`, for which the cell count amounted to 290 cells.
Compound `N#C/C(=C\C1=C(N2CCOCC2)C(=C\c2ccc(Cl)cc2)/CC1)C(=O)Nc1ccccc1F` registered a cell count of 1280 cells.
The result for `COc1ccc(Br)cc1C(C[N+](=O)[O-])c1c(N)n(C)c(=O)n(C)c1=O` (centres undefined) reads 303 cells; that for `Cc1nc2ccc(NS(=O)(=O)c3ccc4c(c3)OCCO4)cc2s1`, 486 cells; that for `COc1ccc(S(=O)(=O)Cc2ccc(C(=O)N3CCOCC3)o2)cc1`, 403 cells.
To `CCOc1cc(CNCCc2ccc(S(N)(=O)=O)cc2)cc(Cl)c1OCc1ccccc1` belongs 251 cells; to `Cc1cccc(Oc2nccc(C(F)(F)F)c2C(=O)Nc2ccc(F)cc2F)c1`, 1420 cells.
In turn, `O=C1/C(=C/c2ccncc2)CCC/C1=C\c1ccncc1` gave a cell count of 458 cells.
To `Cc1ccccc1SCc1noc(C(=O)NC(C)C)c1C(=O)O` belongs 1370 cells.
The result for `CCOc1cc(S(=O)(=O)NCc2ccncc2)ccc1Cl` reads 332 cells.
The result for `CN(C)c1ccc(NC2=C(Cl)C(=O)c3ccccc3C2=O)cc1` reads 246 cells.
Compound `CC(=O)c1cccc(NS(=O)(=O)c2ccc(N/C=C\C(=O)c3ccc(F)cc3)cc2)c1` displayed a cell count of 437 cells.
To `O=C(c1cc2sccc2n1Cc1ccc(F)cc1)N1CCN(c2nc3ccccc3s2)CC1` belongs 438 cells.
Compound `O=C(CSc1nnc(C2CC2)n1-c1ccccc1)NCc1ccco1` yielded a cell count of 338 cells.
To `COc1cccc(C2C3CN(C)CC=C3C(C#N)=C(N)C2(C#N)C#N)c1OC` (centres undefined) belongs 1470 cells; to `Cc1csc(NC(=O)c2sc3nc(-c4cccs4)ccc3c2N)n1`, 1840 cells; to `N=c1c2c(-c3ccccc3)c(-c3ccccc3)n(Cc3ccco3)c2ncn1CCO`, 396 cells.
To `Cc1ccc(Cl)cc1N1CCN(CC(=O)Nc2ccc(CN3CCCCC3)cc2)CC1` belongs 273 cells.
To `C=CCn1c(SCc2cccc(F)c2)nc2cc(C(=O)N3CCC(C(N)=O)CC3)ccc2c1=O` belongs 398 cells.
As to `O=C(O)c1cc(-c2ccncc2)nc2ccc(F)cc12`, the cell count worked out at 1300 cells.
The result for `CC[n+]1c(/C=C2/C=C(C)CC(C)C2)sc2ccccc21` (centres undefined) reads 258 cells.
The result for `O=c1[nH]c(CN2CCN(Cc3ccc4c(c3)OCO4)CC2)nc2sc3c(c12)CCC3` reads 1190 cells; that for `O=c1cc(/N=C/c2coc3c(ccc4ccccc43)c2=O)[nH]c(=S)[nH]1`, 470 cells; that for `CC(=O)n1cc(N(C(=O)CCl)c2ccccc2)c2ccccc21`, 309 cells.
The result for `COc1ccc(/C=C2\CC/C(=C\c3ccc(OC)cc3OC)C2=O)c(OC)c1` reads 1300 cells; that for `Cc1ccc(N2CCN(CC(=O)Nc3c(C(=O)C4CC4)oc4ccccc34)CC2)cc1`, 318 cells; that for `Cc1ccc(S(=O)(=O)N2CCCC2C(=O)N(C)Cc2cccs2)cc1` (centres undefined), 950 cells.
As to `N#CC(C#N)=C1C=C2C=C(N3CCOCC3)CCC2CC1` (centres undefined), the cell count is 1400 cells.
The result for `CC(C(=O)NC1CCCc2ccccc21)N1CCN(Cc2ccc3c(c2)OCO3)CC1` (centres undefined) reads 381 cells; that for `COc1cc(CN(C)CC(=O)c2[nH]c(C)c(C(C)=O)c2C)ccc1OC(F)F`, 348 cells.
The result for `CC(C)(C)NS(=O)(=O)c1ccc(CCC(=O)Nc2cc(Cl)ccc2Oc2ccccc2)cc1` reads 449 cells.
To `N#CC(c1cccc(Cl)c1)c1ccc2c(C(F)(F)F)cc(C(F)(F)F)nc2n1` (centres undefined) belongs 318 cells; to `CC1CCCCN1c1ncnc2ccccc12` (centres undefined), 495 cells.
On to `O=C1Nc2ccc(Br)cc2C12NNc1ccccc1O2` (centres undefined), for which the cell count amounted to 1140 cells.
The result for `Cn1c(=O)oc2cc(S(=O)(=O)NCc3ccncc3)ccc21` reads 496 cells; that for `C=C(CO)C1Cc2cc(C(C)=O)ccc2O1` (centres undefined), 165 cells.
To `Cc1ccc(NCCC(=O)c2cccc([N+](=O)[O-])c2)cc1` belongs 397 cells.
To `CC[n+]1ccc(/C=C/c2ccc(N(C)C)cc2)c2ccccc21` belongs 248 cells; to `COc1cccc(C(=O)CN2C(=O)C(C)(C)Oc3ccc(C(=O)N4CCCCCC4)cc32)c1`, 989 cells.
Consider `CCCN1C(=O)/C(=C\C=C2\N(CC)c3ccccc3C2(C)C)SC1=S`, for which the cell count was found to be 1180 cells.
To `Cc1sc2ncnc(NCC(C)(C)N3CCOCC3)c2c1C` belongs 363 cells.
For `COc1ccc(N2CCN(C(=O)CSc3nnc(-c4cccnc4)n3-c3ccccc3)CC2)cc1`, the cell count was 448 cells.
In turn, `O=C1C(Cl)=C(Nc2ccccc2)C(=O)c2ccccc21` came in with a cell count of 199 cells.
Turning to `COc1ccccc1/C=C/C(=O)/C=C/c1ccccc1O`, the cell count was 448 cells.
Compound `Clc1ccc2nnnc(-c3ccccc3)c2c1` displayed a cell count of 448 cells.
In the case of `COc1cc(OC)c(OC)cc1/C=C1\Oc2cc(OS(C)(=O)=O)ccc2C1=O`, the cell count was 1120 cells.
To `COc1ccccc1-n1c(-c2ccccc2)c[n+]2c1CCc1ccccc1-2` belongs 370 cells.
To `CC(=O)Nc1nc(-c2ccc(Br)s2)cs1` belongs 1070 cells; to `COc1ccc(C2C(C(=O)c3ccccc3)=C(C)Nc3nc4ccccc4n32)c(OC)c1` (centres undefined), 1180 cells.
Turning to `Cc1ccc(-c2c[n+](CC(=O)c3ccc(Br)cc3)c3n2CCCCC3)cc1`, the cell count amounted to 287 cells.
The result for `CC1CCCN(CCOCCSc2ccccc2)C1` (centres undefined) reads 456 cells.
To `CCOc1ncccc1C(=O)NCc1ccccc1` belongs 446 cells; to `Cc1ccc(N2C(=O)c3cccc4c(N)ccc(c34)C2=O)c2cccnc12`, 453 cells; to `CC(=Nc1ccc(C)cc1C)c1sc2ccccc2c1O`, 1600 cells.
To `COc1ccccc1N1CCN(C/C(O)=C(\C#N)c2nc(-c3ccccc3)cs2)CC1` belongs 1010 cells; to `CC1(C)CC(=O)c2cc(C(=O)N3CCCC(C)(C)C3)c(=O)n(-c3ccccc3)c2C1`, 419 cells.
`CCCCNC(=O)/C(C#N)=c1\s/c(=C\c2ccccc2OC(F)F)c(=O)n1CCCOC` displayed a cell count of 1420 cells.
The result for `CCOc1ccc2[nH]c(=O)c(CN(CCc3ccccc3)C(=O)N3CCOCC3)cc2c1` reads 1340 cells.
The result for `CC1(C)c2ccccc2N2CC(=O)NC21/C=C/c1ccco1` (centres undefined) reads 1290 cells; that for `CCOC(=O)c1c(-c2ccc(C)o2)csc1NC(=O)CN1CCN(CC)CC1`, 446 cells; that for `CCN(CC)CCCN(Cc1cc2cc(OC)ccc2[nH]c1=O)C(=O)Nc1ccc(F)cc1`, 428 cells.
The result for `CC1CCCCC1NC(=O)COC(=O)c1c2c(nc3ccccc13)/C(=C/c1ccco1)CC2` (centres undefined) reads 1160 cells; that for `CCCCNc1nc2c(c(=O)n(C)c(=O)n2C)n1Cc1cccc(OC)c1`, 387 cells; that for `C=CCSc1nnc(C)c(/C=C/Nc2ccc(Cl)cc2)n1`, 1300 cells.
`O=C(/C=C/c1ccc2ccccc2n1)c1cc(Br)ccc1O` had a cell count of 1310 cells.
To `COc1ccc(CNc2cc(C)nc3ncnn23)c(OC)c1` belongs 489 cells; to `COc1ccccc1NC(=O)C1=C(C)NC(SCC(=O)c2ccc(C)cc2)=C(C#N)C1c1ccco1` (centres undefined), 836 cells; to `COc1cccc(/C=N/Nc2nc(Nc3ccccc3)nc(-n3nc(C)cc3C)n2)c1O`, 186 cells.
To `CCOc1ccc(-n2c(-c3ccc(OC)cc3)c[n+]3c2CCCCC3)cc1` belongs 446 cells; to `Cc1c(C(=O)O)cccc1-c1ccc(/C=C2/NC(=O)N(c3ccccc3)C2=O)o1`, 1480 cells; to `CCN(CC)c1ccc2cc(/C(N)=N/NC(=O)c3cccs3)c(=O)oc2c1`, 1060 cells.
The result for `Cc1ccc(CNC(=O)c2nn(C)c(C)c2[N+](=O)[O-])cc1` reads 365 cells; that for `CC1(C)Cc2c(C#N)c(N3CCN(C(=O)c4ccco4)CC3)nc(-c3ccco3)c2CS1`, 344 cells.
Regarding `CCOc1cc(N(CC)CC)ccc1/C=C(/C#N)c1nc2ccccc2[nH]1`, the cell count came to 1100 cells.
The compound `COc1ccc2cc3cc(C(=O)NCc4ccccn4)oc3nc2c1` gave a cell count of 1430 cells.
To `O=C(C1CC(c2ccc(F)cc2)=NO1)N1CCN(Cc2ccccc2)CC1` (centres undefined) belongs 301 cells; to `COc1ccccc1N1CCN(/N=C/c2c(C)nn(-c3ccccc3)c2C)CC1`, 423 cells.
The compound `COc1ccc(CNC[C@@H](CCCCN(C)Cc2ccc(OC)cc2)N2C[C@H](c3ccccc3)N(CCc3ccc(Cl)c(Cl)c3)C(=O)C2=O)cc1` gave a cell count of 309 cells.
The compound `CCN(CC)c1ccc2cc(-c3nc4ccccc4[nH]3)c(=O)oc2c1` had a cell count of 1580 cells.
The result for `O=C(O)c1cc(-c2ccc(/C=C3/SC(=S)N(Cc4ccccc4)C3=O)o2)ccc1Cl` reads 1080 cells.
The result for `CC1CCc2onc(C(=O)O)c2C1` (centres undefined) reads 452 cells; that for `CCN1/C(=C/c2ccc3ccccc3[n+]2CC)C=Cc2ccccc21`, 198 cells; that for `CCCNC(=S)NC1CC2CCCC(C1)N2CC(C)C` (centres undefined), 481 cells.
In turn, `O=c1cc(CSc2nnc(-c3cccs3)n2Cc2ccccc2)nc2sc3ccccc3n12` had a cell count of 204 cells.
The result for `CC(C)N1CC=C2C(C#N)=C(N)C(C#N)(C#N)[C@H](c3ccoc3)[C@H]2C1` reads 1230 cells.
The result for `Cc1nn(-c2ccc(F)cc2)c2nc(N)c(C#N)c(-c3cccs3)c12` reads 454 cells.
The result for `CCOC(=O)N1CCN(C(=O)NC2CCCCC2)CC1` reads 1510 cells.
`CCCNc1c(F)c(F)c2c(C)c3ccccc3nc2c1F` yielded a cell count of 1670 cells.
To `COc1ccc(-n2c(-c3ccccc3)c[n+]3c2CCC3)cc1` belongs 380 cells; to `Cc1ccc(-c2nn(CCC#N)cc2C=C(C#N)C#N)cc1`, 435 cells.
The result for `COC(=O)C1=C(N)n2c(s/c(=C\c3cccnc3)c2=O)=C(C(=O)OC)C1c1cccnc1` (centres undefined) reads 1050 cells.
Take `CC1CCCC(C)N1C(=O)CSc1nnc(-c2cccs2)o1` (centres undefined): the cell count was determined as 1340 cells.
`S=C(NNc1ccnc2cc(Cl)ccc12)Nc1ccccc1Cl` came in with a cell count of 352 cells.
To `Cc1ccc(C(=O)NCCCn2ccnc2)cc1[N+](=O)[O-]` belongs 1500 cells; to `CC1CCC(NC(=O)C2CCC(CNS(=O)(=O)c3cccc4nsnc34)CC2)CC1` (centres undefined), 452 cells.
The result for `CCOC(=O)c1cnn(-c2cc(C)nc3c(-c4ccccc4)cnn23)c1N` reads 899 cells; that for `COc1ccc(CN2CCN(C(=O)C3CC(=O)N(C4CCCCCC4)C3)CC2)c(OC)c1OC` (centres undefined), 468 cells; that for `CCc1ccc(C(=O)NN(C(=O)c2ccc(CC)cc2)C(C)(C)C)cc1`, 348 cells.
The result for `CN1\C(=C/C=C/C=C/C=[N+](C)C)C(C)(C)c2ccccc21` reads 410 cells; that for `CCOc1ccc(C(=O)Nc2cc(C)c3c(=O)oc4ccccc4c3n2)cc1`, 413 cells; that for `CN1CC=C2C(C#N)=C(N)C(C#N)(C#N)C(c3cccc(Cl)c3Cl)C2C1` (centres undefined), 1150 cells.
As to `Cc1cc(N2C(=O)c3ccccc3C2=O)n(C)n1`, the cell count was 1420 cells.
